This is one part of the list. Repeats are few or missing, and single values can be far off.
Assays:
Experiment in all cases: cell count relative to DMSO control; melanoma cells; higher = more viable cells
Details in all cases: library dose: standard library concentration; 72 h
[1] = test system: G361
[2] = test system: IPC-298
[3] = test system: IST-MEL1
[4] = test system: LB2518-MEL
[5] = test system: LOXIMVI
[6] = test system: MEL-HO
[7] = test system: MZ2-MEL
[8] = test system: MeWo
[9] = test system: RPMI7951
[10] = test system: RVH-421
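Also: cells treated in 1,536-well plates, then fixed and DAPI-stained, with nuclei counted from automated high-throughput microscope images.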

SMILES | cell count [1] [%] | cell count [2] [%] | cell count [3] [%] | cell count [4] [%] | cell count [5] [%] | cell count [6] [%] | cell count [7] [%] | cell count [8] [%] | cell count [9] [%] | cell count [10] [%]
Cc1ccc(Nc2nccc(N(C)c3ccc4c(C)n(C)nc4c3)n2)cc1S(N)(=O)=O [Pazopanib] + O=c1cc(-c2cccc3c2Sc2ccccc2S3)oc(N2CCOCC2)c1 [KU55933] (first compound 2 µM, partner dose 5 µM) | 59.7 | 83.1 | 101 | 70.9 | 98 | 80.7 | 74.6 | 69.1 | 73.5 | 96
CC1(C)CCC(c2ccc(Cl)cc2)=C(CN2CCN(c3ccc(C(=O)NS(=O)(=O)c4ccc(N[C@H](CCN5CCOCC5)CSc5ccccc5)c(S(=O)(=O)C(F)(F)F)c4)cc3)CC2)C1 + C=C(c1ccc(C(=O)O)cc1)c1cc2c(cc1C)C(C)(C)CCC2(C)C [Bexarotene] (first compound 2 µM, partner dose 10 µM) | 52.7 | 68.7 | 69.2 | 82.8 | 77.5 | 57.5 | 68.1 | 99.4 | 38.1 | 40.8
O=C(/C=C/c1cccnc1)NCCCCC1CCN(C(=O)c2ccccc2)CC1 + C[C@]1(c2nc3c(C(N)=O)cccc3[nH]2)CCCN1 [Veliparib] (first compound 0.05 µM, partner dose 7 µM) | 3.79 | 46.8 | 71.3 | 65.8 | 81.9 | 48.2 | 45 | 96.1 | 94.9 | 40.3
Cc1ccc(Nc2nccc(N(C)c3ccc4c(C)n(C)nc4c3)n2)cc1S(N)(=O)=O [Pazopanib] + CO[C@@H]1[C@H](N(C)C(=O)c2ccccc2)C[C@H]2O[C@]1(C)n1c3ccccc3c3c4c(c5c6ccccc6n2c5c31)C(=O)NC4 [Midostaurin] (first compound 2 µM, partner dose 0.4 µM) | 52.7 | 45.6 | 69.1 | 45.7 | 47.5 | 65.9 | 43.5 | 72.8 | 36.3 | 71.1
Cc1ccc(Nc2nccc(N(C)c3ccc4c(C)n(C)nc4c3)n2)cc1S(N)(=O)=O [Pazopanib] + Nc1ccn([C@@H]2O[C@H](CO)[C@@H](O)C2(F)F)c(=O)n1 [gemcitabine] (first compound 2 µM, partner dose 0.002 µM) | 60 | 48.7 | 56.8 | 68.7 | 65.4 | 61.3 | 71.2 | 50 | 53.5 | 65.7
O=C(/C=C/c1cccnc1)NCCCCC1CCN(C(=O)c2ccccc2)CC1 + Oc1nc(-c2ccc(C(F)(F)F)cc2)nc2c1CSCC2 [XAV939] (first compound 0.05 µM, partner dose 10 µM) | 15.7 | 44.3 | 80.5 | 75.4 | 62.1 | 63.4 | 65.2 | 93.1 | 70.5 | 80.5
Cc1ccc(Nc2nccc(N(C)c3ccc4c(C)n(C)nc4c3)n2)cc1S(N)(=O)=O [Pazopanib] + COC(=O)c1sccc1S(=O)(=O)Nc1ccc(Nc2ccccc2)cc1OC [GSK0660] (first compound 2 µM, partner dose 5 µM) | 76.1 | 67.1 | 95.5 | 85.3 | 96 | 85.2 | 59.9 | 85.8 | 90.5 | 82.1
O=C(/C=C/c1cccnc1)NCCCCC1CCN(C(=O)c2ccccc2)CC1 + O=C1NC(=O)/C(=C/c2ccc(-c3ccc(F)cc3O)o2)S1 [AS252424] (first compound 0.05 µM, partner dose 5 µM) | 3.51 | 36.3 | 70.6 | 63.1 | 89.3 | 52.3 | 38.5 | 84.4 | 107 | 54.4
CC1(C)CCC(c2ccc(Cl)cc2)=C(CN2CCN(c3ccc(C(=O)NS(=O)(=O)c4ccc(N[C@H](CCN5CCOCC5)CSc5ccccc5)c(S(=O)(=O)C(F)(F)F)c4)cc3)CC2)C1 + C=CCn1c(=O)c2cnc(Nc3ccc(N4CCN(C)CC4)cc3)nc2n1-c1cccc(C(C)(C)O)n1 [MK1775] (first compound 2 µM, partner dose 0.1 µM) | 60.2 | 78.5 | 67.8 | 43 | 45.5 | 54 | 105 | 56.6 | 17.4 | 38.9
O=C(/C=C/c1cccnc1)NCCCCC1CCN(C(=O)c2ccccc2)CC1 + CNC(=O)c1cc(Oc2ccc(NC(=O)Nc3ccc(Cl)c(C(F)(F)F)c3)cc2)ccn1 [sorafenib] (first compound 0.05 µM, partner dose 2 µM) | 7.92 | 43.5 | 76.1 | 71.9 | 127 | 47.5 | 41.1 | 84.5 | 68 | 54.6
O=C(/C=C/c1cccnc1)NCCCCC1CCN(C(=O)c2ccccc2)CC1 + Cn1cc(/C=C2\C(=O)Nc3cccnc32)c2ccccc21 [GW441756] (first compound 0.05 µM, partner dose 2 µM) | 5.59 | 34.6 | 87.8 | 69.6 | 107 | 50.5 | 47.5 | 108 | 140 | 46.7
Cc1ccc(Nc2nccc(N(C)c3ccc4c(C)n(C)nc4c3)n2)cc1S(N)(=O)=O [Pazopanib] + COc1cc2c(Oc3ccc4[nH]c(C)cc4c3F)ncnc2cc1OCCCN1CCCC1 [cediranib] (first compound 2 µM, partner dose 2 µM) | 90.3 | 81 | 101 | 89.2 | 81.7 | 106 | 92.9 | 110 | 94.9 | 95.9
Cc1ccc(Nc2nccc(N(C)c3ccc4c(C)n(C)nc4c3)n2)cc1S(N)(=O)=O [Pazopanib] + CS(=O)(=O)c1ccc(C(=O)Nc2ccc(Cl)c(-c3ccccn3)c2)c(Cl)c1 [vismodegib] (first compound 2 µM, partner dose 5 µM) | 84.7 | 75.4 | 119 | 124 | 120 | 109 | 76.8 | 82.5 | 117 | 128
Cc1ccc(Nc2nccc(N(C)c3ccc4c(C)n(C)nc4c3)n2)cc1S(N)(=O)=O [Pazopanib] + CC(=O)O[C@@]12CO[C@@H]1C[C@H](O)[C@@]1(C)C(=O)[C@H](O)C3=C(C)[C@@H](OC(=O)[C@H](O)[C@@H](NC(=O)OC(C)(C)C)c4ccccc4)C[C@@](O)([C@@H](OC(=O)c4ccccc4)[C@H]21)C3(C)C [Docetaxel] (first compound 2 µM, partner dose 0.0005 µM) | 11.6 | 33.7 | 40.3 | 30.4 | 72.4 | 42.5 | 44.4 | 29 | 17.1 | 48.5
CC1(C)CCC(c2ccc(Cl)cc2)=C(CN2CCN(c3ccc(C(=O)NS(=O)(=O)c4ccc(N[C@H](CCN5CCOCC5)CSc5ccccc5)c(S(=O)(=O)C(F)(F)F)c4)cc3)CC2)C1 + C#Cc1cccc(Nc2ncnc3cc(OCCOC)c(OCCOC)cc23)c1 [erlotinib] (first compound 2 µM, partner dose 4 µM) | 53.5 | 72.4 | 76 | 23.8 | 73.5 | 42.3 | 67.5 | 54.7 | 21.3 | 29.2
O=C(/C=C/c1cccnc1)NCCCCC1CCN(C(=O)c2ccccc2)CC1 + N#Cc1c(O)c2c(-c3ccc(-c4ccccc4O)cc3)csc2[nH]c1=O [A769662] (first compound 0.05 µM, partner dose 10 µM) | 3.39 | 27.2 | 62.8 | 67.2 | 65.1 | 48 | 28.7 | 102 | 95 | 37.7
Cc1ccc(Nc2nccc(N(C)c3ccc4c(C)n(C)nc4c3)n2)cc1S(N)(=O)=O [Pazopanib] + C#Cc1cccc(Nc2ncnc3cc(OCCOC)c(OCCOC)cc23)c1 [erlotinib] (first compound 2 µM, partner dose 4 µM) | 60.3 | 38.7 | 81.9 | 51.9 | 101 | 59.6 | 48.9 | 66 | 51.3 | 52.3
Cc1ccc(Nc2nccc(N(C)c3ccc4c(C)n(C)nc4c3)n2)cc1S(N)(=O)=O [Pazopanib] + O=C(Nc1ccccc1)c1cc([N+](=O)[O-])ccc1Cl [GW9662] (first compound 2 µM, partner dose 10 µM) | 87.5 | 78.1 | 104 | 63.7 | 79.8 | 85.2 | 65.4 | 63.5 | 85.4 | 99.8
CC1(C)CCC(c2ccc(Cl)cc2)=C(CN2CCN(c3ccc(C(=O)NS(=O)(=O)c4ccc(N[C@H](CCN5CCOCC5)CSc5ccccc5)c(S(=O)(=O)C(F)(F)F)c4)cc3)CC2)C1 + C[C@]1(O)C[C@@H](c2nc(-c3ccc4ccc(-c5ccccc5)nc4c3)c3c(N)nccn32)C1 [OSI906] (first compound 2 µM, partner dose 2 µM) | 70.2 | 77.3 | 76.1 | 73.8 | 43.5 | 64 | 66.7 | 73.2 | 37.9 | 58.6
O=C(/C=C/c1cccnc1)NCCCCC1CCN(C(=O)c2ccccc2)CC1 + CC(=O)c1c(C)c2cnc(Nc3ccc(N4CCNCC4)cn3)nc2n(C2CCCC2)c1=O [palbociclib] (first compound 0.05 µM, partner dose 0.2 µM) | 3.21 | 22.3 | 59.3 | 41.3 | 55.7 | 40.8 | 26.3 | 51.6 | 56.2 | 39.1
Cc1ccc(Nc2nccc(N(C)c3ccc4c(C)n(C)nc4c3)n2)cc1S(N)(=O)=O [Pazopanib] + COc1ccc(COc2ccc(Cc3cnc(N)nc3N)cc2OC)cc1 [GW2580] (first compound 2 µM, partner dose 5 µM) | 80.5 | 57.7 | 107 | 77.2 | 101 | 86.8 | 63.2 | 88.4 | 91.4 | 100

Reference: the supplement of paper PMC4604168 (melanoma cell lines)
